Measured values from PubChem BioAssay AID588453 (National Center for Advancing Translational Sciences (NCATS), 2011).
Screen size: about 390,000 compounds; about 4,000 (1%) were called active. The shares of active, inactive and inconclusive entries below differ from those in the screen. Calls follow the shape of the dose curve; as a rule, active = well fitted inhibition curve with a large enough effect; inconclusive = small, poorly fitted or top-dose-only effect; inactive = no such curve, though single readings can be large or run the other way. Potencies beside an inconclusive call are fits to weak or partial responses and may not hold up.

Biological target: Thioredoxin reductase 1, cytoplasmic (Rattus norvegicus) (UniProt O89049)
Assay: qHTS Assay for Inhibitors of Mammalian Selenoprotein Thioredoxin Reductase 1 (TrxR1): qHTS; also: nearly all actives have a fitted effect of over 65% in size
Details: recombinant rTrxR1, NADPH fluorescence consumption, selenite substrate; series mostly up to 114 µM
Summary of the method: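 Rat TrxR1 (90 nM in the dispensed reagent) was pre-reduced with 400 uM NADPH for 5 min at room temperature, then incubated with compound for 15 min. After 400 uM selenite was added, NADPH fluorescence (Ex 340/Em 450 nm) was followed for 8 min.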
Potency is read from the fitted curve at half-maximal effect; tags tell the direction and shape of the fitted curve.

UniProt O89049, sequence (O89049 whole entry, looked up): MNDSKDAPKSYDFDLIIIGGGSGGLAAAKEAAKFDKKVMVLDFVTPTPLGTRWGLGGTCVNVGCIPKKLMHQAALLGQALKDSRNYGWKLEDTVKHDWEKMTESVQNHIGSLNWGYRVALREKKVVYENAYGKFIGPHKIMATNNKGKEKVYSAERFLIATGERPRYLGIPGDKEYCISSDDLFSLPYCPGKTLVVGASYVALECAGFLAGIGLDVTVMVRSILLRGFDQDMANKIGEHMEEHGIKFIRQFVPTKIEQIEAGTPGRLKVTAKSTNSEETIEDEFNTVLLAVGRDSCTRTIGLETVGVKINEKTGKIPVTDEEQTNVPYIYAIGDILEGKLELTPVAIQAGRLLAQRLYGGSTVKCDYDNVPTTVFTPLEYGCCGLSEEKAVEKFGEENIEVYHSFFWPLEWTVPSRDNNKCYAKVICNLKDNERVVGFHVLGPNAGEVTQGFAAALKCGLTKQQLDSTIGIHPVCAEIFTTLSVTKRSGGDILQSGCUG

Row | SMILES | Potency
1 | Cc1ccc(-n2c(SCC(=O)NCc3ccco3)nnc2-c2cccnc2)c(C)c1 | active: 56.2 µM
2 | CCCCOc1ccc(-c2c(C(=O)Nc3ccccc3)c(C)[nH]c(=S)c2C#N)cc1 | inconclusive: 79.4 µM [inhibitor, single point]
3 | CCOc1ccc(OCC)c(NS(=O)(=O)c2cc(-c3onc(C)c3C)ccc2OC)c1 | inactive
4 | CCN(CC(=O)NCc1ccc(F)cc1)C(=O)/C=C/c1ccco1 | inconclusive: 56.2 µM [inhibitor, single point]
5 | CCOC(=O)c1c(N)sc(C(=O)N2CCCCCC2)c1C | inactive
6 | NS(=O)(=O)c1ccc(NC(=O)CSC2CCCCC2)cc1 | inactive
7 | CC(=O)/C(N=Nc1ccc(C(=O)O)cc1[N+](=O)[O-])=C(\C)O | inactive
8 | COc1ccc(OC)c(-c2cc(C(=O)Nc3ccccc3C(N)=O)c3ccccc3n2)c1 | inactive
9 | COc1ccccc1CNC(=O)c1cc(C(=O)CC(C)C)c[nH]1 | inactive
10 | CC(=C/c1ccco1)/C=N/NC(=O)Cc1cccn1C | inconclusive: 70.8 µM [inhibitor, partial curve]
11 | CCOC(=O)CCCc1sc(N)nc1-c1[nH]c(=O)[nH]c1C | active: 7.94 µM
12 | COc1ccccc1C(=O)NC(=O)COC(=O)C1CC2CCCC(C1)C2=O (stereo unspecified) | inconclusive: 70.8 µM [inhibitor, partial curve]
13 | O=C(NCc1ccco1)/C(=C/c1ccc(C(F)(F)F)cc1)c1nc2ccccc2[nH]1 | inconclusive: 39.8 µM [inhibitor, partial curve]
14 | CCc1ccccc1NC1=NCC(=O)N1Cc1ccc(OC)cc1 | inactive
15 | O=C(Nc1nc2ccccc2s1)C1CCN(S(=O)(=O)c2cc([N+](=O)[O-])ccc2Cl)CC1 | inconclusive: 79.4 µM [inhibitor, single point]
16 | COc1ccc(Cl)cc1NC(=O)Cn1cc(S(=O)(=O)Cc2cccc(Cl)c2)c2ccccc21 | inactive
17 | CCc1ccccc1Nc1nn2c(=O)c3ccc(C(=O)NCc4ccccc4Cl)cc3nc2s1 | inconclusive: 89.1 µM [inhibitor, single point]
18 | CCOc1cc(/C=C2/C(=O)N(c3ccccc3)N=C2C)ccc1OC(=O)c1ccco1 | inconclusive: 15.8 µM [inhibitor, full curve]
19 | CN(c1cccc(NC(=O)c2ccc(Cl)c(S(=O)(=O)Nc3ccccc3)c2)c1)S(C)(=O)=O | inactive
20 | COc1ccc2[nH]c(C(=O)N3CCNCC3)cc2c1OC | inconclusive: 44.7 µM [inhibitor, partial curve, poor fit]
21 | COC(=O)C1=C(C)N(c2ccc(S(N)(=O)=O)cc2)C(=O)C1 | inconclusive: 56.2 µM [inhibitor, partial curve, poor fit]
